# Source: PubChem BioAssay AID1030 (National Center for Advancing Translational Sciences (NCATS), 2008)
# Screen size: about 220,000 compounds; about 16,000 (7.3%) were called active. Inconclusive means that the source gave no clear call. Such entries were picked first, then a sample of the others. Calls follow the shape of the dose curve; as a rule, active = well fitted inhibition curve with a large enough effect (not every such curve was filed as active); inconclusive = small, poorly fitted or top-dose-only effect, or another doubt; inactive = no such curve, though single readings can be large or run the other way. No potency is given beside an inconclusive call; the fits are too rough.
# Biological target: Aldehyde dehydrogenase 1A1 (Homo sapiens) (UniProt P00352)
# UniProt P00352, sequence (P00352 whole entry, looked up): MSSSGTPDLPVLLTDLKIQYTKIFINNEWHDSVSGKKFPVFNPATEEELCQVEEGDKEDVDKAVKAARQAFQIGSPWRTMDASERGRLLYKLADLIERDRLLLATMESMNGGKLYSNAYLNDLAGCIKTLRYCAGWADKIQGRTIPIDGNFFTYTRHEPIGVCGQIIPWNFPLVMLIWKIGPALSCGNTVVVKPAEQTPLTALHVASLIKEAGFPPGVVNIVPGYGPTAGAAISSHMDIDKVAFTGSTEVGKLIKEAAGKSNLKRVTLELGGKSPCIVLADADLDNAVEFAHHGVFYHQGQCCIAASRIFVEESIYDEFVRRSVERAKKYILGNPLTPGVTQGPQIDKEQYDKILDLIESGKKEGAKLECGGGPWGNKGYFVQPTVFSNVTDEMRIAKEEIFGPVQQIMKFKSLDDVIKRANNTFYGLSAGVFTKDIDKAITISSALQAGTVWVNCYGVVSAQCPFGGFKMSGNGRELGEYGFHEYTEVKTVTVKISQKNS
# Assay: qHTS Assay for Inhibitors of Aldehyde Dehydrogenase 1 (ALDH1A1);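 as to activity, negative = inhibition: plate controls were no enzyme wells and a reference inhibitor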
# Details: Purified ALDH1A1, NADH fluorescence, propionaldehyde substrate; series mostly up to 75.3 µM
# Potency is read from the fitted curve at half-maximal effect; tags tell the direction and shape of the fitted curve.
Structure (SMILES),Potency,"activity, negative = inhibition"
O=C(CSc1nc2ccccc2c(=O)n1-c1ccc(F)cc1F)Nc1ccc(N2CCOCC2)cc1,"inconclusive [inhibitor, single point]",–
Cc1c(NS(=O)(=O)c2ccc3c(c2)CCN3C(=O)C2CC2)c(=O)n(-c2ccccc2)n1C,inactive,–
Cc1onc(-c2ccccc2Cl)c1C(=O)O/N=C(\N)c1ccc([N+](=O)[O-])o1,active: 12.6 µM,–
O=C(COC(=O)C1CCN(S(=O)(=O)c2cc([N+](=O)[O-])ccc2Cl)CC1)Nc1ncc(Cl)cc1Cl,active: 6.31 µM,–
CCc1cc(C(c2cccc(OC)c2)N2CCOCC2)c(NC(=O)c2ccccc2)s1 (stereo not drawn),"inconclusive [inhibitor, partial curve]",–
O=C1COc2ccc(C(=O)c3ccccc3C(=O)O)cc2N1,inactive,–
O=C(CCN1C(=O)c2ccccc2C1=O)N1CCN(Cc2ccc(Cl)cc2Cl)CC1,"inconclusive [inhibitor, single point]",–
Cc1ccccc1NC(=S)N(CCc1c(C)[nH]c2ccc(F)cc12)Cc1cccnc1,"inconclusive [inhibitor, single point]",–
CC(=O)N(CCS(=O)(=O)c1ccc(Cl)cc1)Cc1cccs1,"inconclusive [inhibitor, single point]",–
COc1ccc(-c2cn3cc([N+](=O)[O-])ccc3n2)cc1OC,inactive,–
C/C(=N/Oc1nc(C)cc(C)n1)c1ccc(F)cc1,inactive,–
O=S(=O)(Nc1ccc(O)c(Sc2nc3ccccc3s2)c1)c1ccc(F)cc1,"inconclusive [inhibitor, single point]",–
Cc1nc2sc3c(c2c(=O)[nH]1)CCCC3,–,inactive: 1.47% [at 13.5 µM]
O=C(Cn1cccc1C(=O)c1ccccc1)NCc1ccc2c(c1)OCO2,"inconclusive [inhibitor, single point]",–
Cc1cccc(Nc2nc3c(S(=O)(=O)c4ccccc4)nnn3c3ccccc23)c1,"inconclusive [inhibitor, partial curve]",–
O=C(OCc1nnc(-c2ccccc2)o1)c1ccc2ccccc2n1,inactive,–
Cc1c(C#N)c(SCC(N)=O)nc2c1CCCC2,inactive,–
CCS(=O)(=O)N1Cc2ccccc2CC1C(=O)NC(C)C12CC3CC(CC(C3)C1)C2 (stereo not drawn),inactive,–
CCn1c(-c2ccco2)nc2ccccc21,"inconclusive [inhibitor, partial curve]",–
COc1ccc(NC(=O)CSc2nnc(CNC(=O)c3ccco3)o2)c(OC)c1,"inconclusive [inhibitor, single point]",–
COc1cc(C)nc2nc(SCc3ccccc3)nn12,active: 14.1 µM,–
c1ccc(CCc2nn3c(Cn4cnc5ccccc54)nnc3s2)cc1,active: 3.55 µM,–
Cc1ccc(C(=O)NC(=S)Nc2cc(C(F)(F)F)ccc2Cl)cc1,"inconclusive [inhibitor, single point]",–
Cc1ccc(-c2nn(CC(=O)Nc3cccnc3)c(=O)c3ccccc23)cc1,"inconclusive [inhibitor, single point]",–
CC(C)CCn1c(Sc2nc3ccccc3o2)nc2c1c(=O)[nH]c(=O)n2C,active: 11.2 µM,–
Oc1oc(-c2ccc(Br)cc2)nc1C=Nc1ccc(Br)cn1,inactive,–

Structure (SMILES),Potency,"activity, negative = inhibition"
O=C(CSc1nc2c(sc3ccccc32)c(=O)n1Cc1ccco1)NCC1CCCO1 (stereo not drawn),active: 17.8 µM,–
Cc1ccccc1CN1CCSc2sccc2C1=O,inactive,–
COc1ccc(S(=O)(=O)Nc2ccccc2C(=O)NCc2ccco2)cc1Br,"inconclusive [inhibitor, partial curve]",–
Cc1cc(C=O)c(C)n1-c1ccc2c(c1)OCO2,active: 1.41 µM,–
CCC(C)(C)NC(=O)/C=C/c1ccccc1[N+](=O)[O-],inactive,–
CCOC(=O)C1CCN(S(=O)(=O)c2cc(Cl)c(C)cc2OC)CC1,inactive,–
COc1ccc(CC(=O)Nc2cccc(C(=O)O)c2C)cc1,"inconclusive [inhibitor, single point]",–
O=C(CSc1nnc(-c2ccc(Br)o2)n1Cc1ccccc1)c1ccccc1F,"inconclusive [inhibitor, single point]",–
COc1cccc(NC(=O)CN2CCN(c3nc(-c4cccc(OC)c4)cs3)CC2)c1,"inconclusive [inhibitor, single point]",–
O=C(Nc1ccc(O)cc1C(=O)O)c1cccc(Br)c1,inactive,–
CCOC(=O)C1=C(C)Nc2ncnn2C1c1ccc(N(C)C)cc1 (stereo not drawn),active: 17.8 µM,–
CC(NS(=O)(=O)c1ccccc1)C(=O)Nc1ccc(S(N)(=O)=O)cc1 (stereo not drawn),"inconclusive [inhibitor, single point]",–
Cc1nc2cc(-c3ccccc3)nn2c(C)c1CCC(=O)NCc1ccco1,"inconclusive [inhibitor, partial curve]",–
COc1cc(NC(=O)CSc2nnnn2Cc2ccccc2)cc(OC)c1,inactive,–
OC(CN1CCN(c2ccccc2)CC1)c1ccc2c(c1)CCN2 (stereo not drawn),active: 7.08 µM,–
Cc1ccc(S(=O)(=O)N2CCCC2C(=O)OCc2nc3sc(C)c(C)c3c(=O)[nH]2)cc1 (stereo not drawn),inactive,–
CC(=O)C1=C(O)C(=O)N(c2cccnc2)C1c1ccc(Cl)cc1 (stereo not drawn),"inconclusive [inhibitor, partial curve]",–
CC(C)CCN1CCN(Cc2cccc3nonc23)CC1CCO (stereo not drawn),"inconclusive [inhibitor, single point]",–
NC(=O)c1sc2nc3c(cc2c1N)CCC3,inactive,–
Cc1ccc([N+](=O)[O-])c(OCCN2C(=O)NC(C)(C)C2=O)c1,"inconclusive [inhibitor, single point]",–
O=C(Nc1ccc(F)cc1)c1cccnc1N1CCCCC1,"inconclusive [inhibitor, single point]",–
O=C(Nc1ccccc1Br)C1CCC(=O)N1Cc1ccccc1Cl (stereo not drawn),inactive,–
O=C1c2cccc(O)c2C(=O)c2c(O[C@@H]3O[C@H](CO)[C@@H](O)[C@H](O)[C@@H]3O)cccc21,–,inactive: 8.6% [at 13.5 µM]
CCc1nc2c(sc3nc4c(cc32)COC(C)(C)C4)c(=O)n1CCN(CC)CC,active: 10 µM,–
Cc1ccc(-c2csc3ncn(-n4c(C)ccc4C)c(=O)c23)o1,active: 31.6 µM,–
CCOCC(=O)Nc1ccc(Br)c(C)c1,active: 14.1 µM,–

Structure (SMILES),Potency,"activity, negative = inhibition"
CCN(CCNC(=O)C1CCCN(S(=O)(=O)CC)C1)c1ccccc1 (stereo not drawn),"inconclusive [inhibitor, partial curve, poor fit]",–
CC1CN(C2CCN(S(=O)(=O)c3ccccc3)CC2)CC(C)O1 (stereo not drawn),"inconclusive [inhibitor, single point]",–
O=C(NNC(=O)c1cccs1)c1ccc(Cl)c(Cl)c1,inactive,–
O=C(NC1CCCCC1)NC1CCN(CC(=O)N2CCOCC2)CC1,"inconclusive [inhibitor, single point]",–
CCCn1nnnc1NCc1c(F)cccc1Cl,"inconclusive [inhibitor, single point]",–
Cc1ccccc1CC1(CO)CCCN(Cc2ccc(C#CC(C)(C)O)cc2)C1 (stereo not drawn),"inconclusive [inhibitor, single point]",–
Cc1sc2ncnc(SCC(=O)c3cccs3)c2c1C,"inconclusive [inhibitor, partial curve, poor fit]",–
Cc1ccnc(N2C(=O)c3ccccc3C2Nc2cccc(C)c2C)c1 (stereo not drawn),inactive,–
O=C(NCCCc1ccccc1)c1ccccc1O,"inconclusive [inhibitor, partial curve]",–
COc1cccc(NC(=O)COC(=O)c2cccnc2)c1,"inconclusive [inhibitor, single point]",–
CCC(=O)NC(Nc1cc(C)ccn1)(C(F)(F)F)C(F)(F)F,"inconclusive [inhibitor, single point]",–
O=C(CC1NCCNC1=O)Nc1ccc(Oc2ccccc2)cc1 (stereo not drawn),active: 20 µM,–
CCOC(=O)c1c(C)oc(/N=C/c2ccccc2O)c1C#N,inactive,–
Cc1cccc(/C=N/NC(=O)Cn2nccc2C)n1,inactive,–
C#CCn1ccc(O)c(Cc2c(F)cccc2Cl)c1=O,inactive,–
COc1ccc(C(=O)COC(=O)C(C(C)C)N2C(=O)C3C4C=CC(C4)C3C2=O)cc1 (stereo not drawn),"inconclusive [inhibitor, single point]",–
O=C(NC(=S)Nc1ccc(Br)cn1)c1cncc(Br)c1,inactive,–
Cc1ccc(S(=O)(=O)Cc2cn3cccnc3n2)cc1,"inconclusive [inhibitor, partial curve]",–
CNC(=O)c1c(NC(=O)c2nc3ccccc3s2)sc2c1CCC2,"inconclusive [inhibitor, partial curve]",–
COC(=O)c1cn(NC(=O)/C=C/c2cc(OC)ccc2OC)c(=O)c2ccccc12,"inconclusive [inhibitor, partial curve]",–
O=C(CNc1cc(S(=O)(=O)N2CCCC2)ccc1OCC(F)(F)F)Nc1ccc(SC(F)F)cc1,inactive,–
C=CCn1c(SCC(=O)NC(=O)NCCC)nnc1C1CCCCC1,active: 5.62 µM,–
CCC(=O)Nc1c(C)ccc2nsnc12,"inconclusive [inhibitor, single point]",–
CCNC(=O)COc1cc(C)c(Br)c(C)c1,inactive,–
CS(=O)(=O)c1ccc(C(=O)Nc2cc(S(C)(=O)=O)ccc2Cl)cc1,inactive,–
CCOc1ccc(S(=O)(=O)N(C)c2ccc(OCC(=O)OCc3c(C)noc3C)cc2)cc1,"inconclusive [inhibitor, partial curve]",–
